# Laboratory results: PubChem BioAssay AID485294 (National Center for Advancing Translational Sciences (NCATS), 2010)
# Out of some 370,000 compounds screened, about 150 (0.041%) were called active. Inconclusive results, whose numbers are uncertain, are shown with a selection of clear calls. Calls follow the shape of the dose curve; as a rule, active = well fitted inhibition curve with a large enough effect; inconclusive = small, poorly fitted or top-dose-only effect; inactive = flat fitted curve, though single readings scatter. No potency is given beside an inconclusive call; the fits are too rough.
# Molecular target: Beta-lactamase (Escherichia coli (strain K12)) (UniProt P00811)
# Test: qHTS Inhibitors of AmpC Beta-Lactamase (assay with detergent); also: nearly all actives have a fitted effect of over 25% in size
# Conditions: AmpC hydrolysis of nitrocefin, absorbance 480 nm, 0.01% Triton; series mostly up to 114 µM
# In short: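 AmpC (5.3 nM in the dispensed reagent) in 20 mM phosphate pH 7.0 with 0.01% (detergent screen) or 0.0001% Triton X-100 was preincubated with compounds for 15 min at room temperature. Nitrocefin was then added from an 800 uM solution, and hydrolysis was followed at 480 nm.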
# Potency is read from the fitted curve at half-maximal effect; tags tell the direction and shape of the fitted curve.
# Chain of UniProt P00811 (P00811 whole entry, looked up): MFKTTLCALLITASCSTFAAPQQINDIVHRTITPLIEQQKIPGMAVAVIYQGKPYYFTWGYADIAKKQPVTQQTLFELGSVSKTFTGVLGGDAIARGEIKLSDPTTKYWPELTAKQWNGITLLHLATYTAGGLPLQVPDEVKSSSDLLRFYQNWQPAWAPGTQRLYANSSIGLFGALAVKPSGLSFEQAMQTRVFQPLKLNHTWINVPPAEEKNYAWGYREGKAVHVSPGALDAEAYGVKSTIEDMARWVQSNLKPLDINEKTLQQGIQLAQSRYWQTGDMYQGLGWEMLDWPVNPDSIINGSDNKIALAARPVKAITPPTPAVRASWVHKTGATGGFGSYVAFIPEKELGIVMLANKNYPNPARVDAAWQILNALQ
row,SMILES,Potency
1,C=CCn1c(C)csc1=Nc1ccc(C(C)=O)cc1,"inconclusive [inhibitor, full curve, poor fit]"
2,O=[N+]([O-])c1cc(S(=O)(=O)Nc2ccccc2)ccc1NCc1cccnc1,"inconclusive [inhibitor, single point]"
3,CCN(CC)c1ccc(CNc2nc3ccccc3n2CCN2CCOCC2)cc1,inactive
4,C(=N\Nc1nc2ccccc2[nH]1)/c1ccc2c(c1)OCO2,"inconclusive [inhibitor, full curve]"
5,Cc1ccc(-c2ccnc3nc(Sc4ncc(C(F)(F)F)cc4Cl)nn23)cc1,"inconclusive [inhibitor, single point]"
6,COc1ccc(C(=O)/C=C/Nc2cc(C)ccn2)cc1,inactive
7,O=S(=O)(c1cccs1)N1CCC(CO)(Cc2ccc(Cl)cc2)CC1,inactive
8,O=C(COC(=O)/C=C/c1ccc(OC(F)F)cc1)NC(=O)NCc1ccccc1,"inconclusive [inhibitor, full curve, poor fit]"
9,CCOC(=O)NCCc1c(C)nc2c(c(C)nn2C(C)(C)C)c1C,"inconclusive [inhibitor, full curve, poor fit]"
10,CCOC(=O)N1CCN(CC(=O)Nc2ccc(F)cc2F)CC1,"inconclusive [inhibitor, partial curve, poor fit]"
11,COCc1[nH]nc2c1C(c1ccccc1F)C(C#N)=C(N)O2 (configuration not stated),"inconclusive [inhibitor, full curve, poor fit]"
12,Cc1ccccc1NC(=O)NC1(C(=O)NCCCN2CCOCC2)CCCCC1,"inconclusive [inhibitor, single point]"
13,N#Cc1ccc(-n2nccc2-c2cnc3n(c2=O)CCS3)cc1,"inconclusive [inhibitor, partial curve]"
14,Cc1c(C(=O)N2CCC(C)CC2)c(S(=O)(=O)N2CCN(c3cccc(Cl)c3)CC2)c(C)n1C,inactive
15,CCNC(=O)NC(=O)COC(=O)CCCc1nc2ccccc2s1,"inconclusive [inhibitor, partial curve]"
16,Cc1ccc(N2CCN(C(=O)c3ccccc3NC(=O)C3CC=CCC3C(=O)O)CC2)cc1 (configuration not stated),"inconclusive [inhibitor, full curve, poor fit]"
17,O=C(CN1C(=O)NC2(CCCc3ccccc32)C1=O)N1CCN(c2cccc(C(F)(F)F)c2)CC1 (configuration not stated),"inconclusive [inhibitor, partial curve, poor fit]"
18,CC1(C)Cc2nc(-c3ccccc3)nc(SCC(=O)N3CCOCC3)c2CO1,"inconclusive [inhibitor, full curve, poor fit]"
19,COC(=O)c1ccc(CN(C)S(=O)(=O)c2ccc(C)cc2)o1,"inconclusive [inhibitor, single point]"
20,CCn1nnnc1NCc1cccn1C,"inconclusive [inhibitor, full curve, poor fit]"
21,CCCC[n+]1c2ccccc2cc2ccccc21,active: 31.6 µM
22,O=c1c(N2CCc3ccccc3C2)csc2ccc(Br)cc12,inactive
23,CCS(=O)(=O)N1CCN(c2ccc([N+](=O)[O-])c(NC(C)c3ccccc3)c2)CC1 (configuration not stated),inactive

row,SMILES,Potency
1,O=C(CNS(=O)(=O)c1ccccc1)N1CCN(c2ccccc2)CC1,"inconclusive [inhibitor, partial curve, poor fit]"
2,CCCn1c(N)c(N(C)C)c(=O)n(CC(=O)Nc2ccc(OC(F)(F)F)cc2)c1=O,inactive
3,O=C(NCCC1=CCCCC1)C1CCN(S(=O)(=O)c2ccc(Br)s2)CC1,"inconclusive [inhibitor, partial curve, poor fit]"
4,Cc1c(NC(=O)CSc2nnc(-c3cccnc3)n2N)c(=O)n(-c2ccccc2)n1C,"inconclusive [inhibitor, full curve, poor fit]"
5,CCCNc1nc(N)nc(-c2cc(Cl)ccc2OC)n1,inactive
6,CN(C)CCCN(C(=O)CCc1ccccc1)c1nc2c(F)cccc2s1,inactive
7,C=Cc1ccc(Cn2c(=O)cc(C)c3c(C)nn(C)c32)cc1,inactive
8,O=C(O)COc1ccc(NC(=O)c2ccc3c(c2)C(=O)N(Cc2ccccc2)C3=O)cc1,"inconclusive [inhibitor, full curve]"
9,CCc1ccc(C(=O)NNC(=O)CN2C(=O)NC(CC)(c3ccccc3)C2=O)cc1 (configuration not stated),"inconclusive [inhibitor, full curve, poor fit]"
10,O=C(Cc1cccs1)Nc1ccc(Cl)c(S(=O)(=O)N2CCOCC2)c1,inactive
11,O=C(Cc1ccc(S(=O)(=O)N2CCOCC2)s1)Nc1cc(Cl)ccc1Cl,"inconclusive [inhibitor, partial curve, poor fit]"
12,COc1cc(/C=N/NC(=O)c2cc(-c3c(C)nn(-c4ccccc4)c3C)n[nH]2)ccc1O,"inconclusive [inhibitor, full curve, poor fit]"
13,CCn1c(-c2ccc(F)cc2)cnc1SCC(=O)N1CCCCC1C (configuration not stated),"inconclusive [inhibitor, single point]"
14,CCOCCCn1cnc2c(c1=O)c1nc3ccccc3nc1n2-c1ccccc1,"inconclusive [inhibitor, full curve, poor fit]"
15,CCOC(=O)c1ccccc1NC(=O)c1ccc(N(C)S(C)(=O)=O)cc1,"inconclusive [inhibitor, single point]"
16,O=C1NC(=O)N(Cc2ccco2)C(=O)/C1=C/c1ccc(-c2cccc([N+](=O)[O-])c2)o1,"inconclusive [inhibitor, full curve]"
17,CC(=NCC1CCCO1)C1=C(O)CC(C)(C)CC1=O (configuration not stated),"inconclusive [inhibitor, full curve, poor fit]"
18,CCN1CCN(C(=O)c2ccc(OC3CCN(CCc4ccccc4)CC3)cc2)[C@@H](C)C1=O,inactive
19,O=C(Nc1nc(-c2ccc(-c3ccccc3)cc2)cs1)c1cnccn1,"inconclusive [inhibitor, full curve, poor fit]"
20,O=c1c2ccccc2ncn1-c1ccc(Br)cc1[N+](=O)[O-],"inconclusive [inhibitor, full curve]"
21,Cc1ccc(S(=O)(=O)N(Cc2ccccc2)c2ccccc2C(=O)N2CCCCC2)cc1,inactive
22,CCOc1ccccc1CN1CCNC(=O)C1CC(=O)NCCN1CCOC1=O (configuration not stated),"inconclusive [inhibitor, full curve, poor fit]"
23,CCOc1ccccc1CN1CCN(Cc2cc3ccccc3[nH]2)CC1CCO (configuration not stated),"inconclusive [inhibitor, full curve, poor fit]"

row,SMILES,Potency
1,CCCCOc1cccc(C(=O)NC(=S)Nc2cccnc2)c1,"inconclusive [inhibitor, full curve, poor fit]"
2,C[C@H]1O[C@@H](n2cc(F)c(=O)[nH]c2=O)[C@H](O)[C@@H]1O,inactive
3,COc1cccc(C(c2nnnn2Cc2ccccc2)N2CCN(C3CCCC3)CC2)c1OC (configuration not stated),"inconclusive [inhibitor, full curve, poor fit]"
4,CC(C)NCc1nnc(-c2ccccc2Cl)o1,inactive
5,CCC(=O)N1CCN(c2nnc(-c3ccccc3)c3ccccc23)CC1,inactive
6,O=C(NC1CCCCC1)N(Cc1cc2cc3c(cc2[nH]c1=O)OCCO3)C1CCCCC1,"inconclusive [inhibitor, single point]"
7,CN(C)C(=O)COC(=O)c1cccnc1Nc1ccccc1F,"inconclusive [inhibitor, single point]"
8,CCOc1ccc(-c2nnn(CCC(=O)O)n2)cc1OC,"inconclusive [inhibitor, full curve, poor fit]"
9,COc1ccc(/C(C)=N/NC(=S)NCCc2ccccc2)cc1,inactive
10,COc1cccc(OCC(=O)Nc2nnc3n2CCS3)c1,inactive
11,CSc1oc(-c2ccco2)nc1S(=O)(=O)c1ccc(Br)cc1,"inconclusive [inhibitor, full curve]"
12,NC(=O)CCSC(=S)N1CCOCC1,"inconclusive [inhibitor, full curve, poor fit]"
13,Cc1oc(-c2cccc(Cl)c2)nc1CN1CCC(C(=O)NCCc2ccc(Cl)cc2)CC1,"inconclusive [inhibitor, partial curve]"
14,Cc1ccc2nc(Nc3ccc4[nH]c(=O)[nH]c4c3)c(-n3nc(C)cc3C)nc2c1,"inconclusive [inhibitor, full curve]"
15,COc1cc(OC)c2cc(C(=O)N[C@@H](Cc3ccccc3)C(=O)O)n(C)c2c1,"inconclusive [inhibitor, full curve, poor fit]"
16,Cc1ccc(C(=O)/C=C/c2ccc(-c3ccccc3[N+](=O)[O-])o2)cc1,inactive
17,COC(=O)N1C(=O)[C@](Cc2ccccc2)(c2ccccc2)N1C(=O)OC,inactive
18,COc1ccc(N2CCN(C(=O)COC(=O)/C=C/c3ccc(C(F)(F)F)cc3)CC2)cc1,"inconclusive [inhibitor, full curve]"
19,O=C(CCn1c(=O)oc2ccccc21)N1CCN(c2ccc(F)cc2)CC1,"inconclusive [inhibitor, full curve, poor fit]"
20,Cc1ccc(CNC(=O)Nc2ccc(F)cc2)n1C,"inconclusive [inhibitor, partial curve, poor fit]"
21,O=C(CN1C(=O)NC2(CCCCCC2)C1=O)c1ccc2c(c1)OCCO2,"inconclusive [inhibitor, partial curve, poor fit]"
